Data as given in publication PMC7106839.
Results are given in words; binding and its absence hold for the method and conditions named. In cells and extracts the contact can be indirect. Some binding calls cover weakened binding; strength is not graded here.

Protein sequences, listed by entry. Tags and fused reporters are not part of them. Lines headed by an entry give the natural chain unless they say otherwise; changes in a name come on top.
UniProt P17844: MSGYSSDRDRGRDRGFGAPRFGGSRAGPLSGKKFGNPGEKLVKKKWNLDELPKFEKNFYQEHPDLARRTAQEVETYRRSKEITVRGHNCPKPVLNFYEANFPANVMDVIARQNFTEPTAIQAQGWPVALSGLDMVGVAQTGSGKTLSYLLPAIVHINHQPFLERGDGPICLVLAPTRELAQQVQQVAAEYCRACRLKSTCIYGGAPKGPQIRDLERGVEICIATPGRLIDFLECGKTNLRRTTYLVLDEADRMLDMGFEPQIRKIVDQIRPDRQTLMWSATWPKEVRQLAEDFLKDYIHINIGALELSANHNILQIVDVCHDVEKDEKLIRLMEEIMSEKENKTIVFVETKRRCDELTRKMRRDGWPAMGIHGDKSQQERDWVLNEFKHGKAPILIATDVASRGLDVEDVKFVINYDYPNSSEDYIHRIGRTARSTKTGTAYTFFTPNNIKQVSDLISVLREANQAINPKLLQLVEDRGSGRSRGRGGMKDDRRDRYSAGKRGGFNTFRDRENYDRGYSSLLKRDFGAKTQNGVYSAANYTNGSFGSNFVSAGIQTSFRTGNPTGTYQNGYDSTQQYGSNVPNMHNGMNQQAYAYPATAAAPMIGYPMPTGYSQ
UniProt Q92841: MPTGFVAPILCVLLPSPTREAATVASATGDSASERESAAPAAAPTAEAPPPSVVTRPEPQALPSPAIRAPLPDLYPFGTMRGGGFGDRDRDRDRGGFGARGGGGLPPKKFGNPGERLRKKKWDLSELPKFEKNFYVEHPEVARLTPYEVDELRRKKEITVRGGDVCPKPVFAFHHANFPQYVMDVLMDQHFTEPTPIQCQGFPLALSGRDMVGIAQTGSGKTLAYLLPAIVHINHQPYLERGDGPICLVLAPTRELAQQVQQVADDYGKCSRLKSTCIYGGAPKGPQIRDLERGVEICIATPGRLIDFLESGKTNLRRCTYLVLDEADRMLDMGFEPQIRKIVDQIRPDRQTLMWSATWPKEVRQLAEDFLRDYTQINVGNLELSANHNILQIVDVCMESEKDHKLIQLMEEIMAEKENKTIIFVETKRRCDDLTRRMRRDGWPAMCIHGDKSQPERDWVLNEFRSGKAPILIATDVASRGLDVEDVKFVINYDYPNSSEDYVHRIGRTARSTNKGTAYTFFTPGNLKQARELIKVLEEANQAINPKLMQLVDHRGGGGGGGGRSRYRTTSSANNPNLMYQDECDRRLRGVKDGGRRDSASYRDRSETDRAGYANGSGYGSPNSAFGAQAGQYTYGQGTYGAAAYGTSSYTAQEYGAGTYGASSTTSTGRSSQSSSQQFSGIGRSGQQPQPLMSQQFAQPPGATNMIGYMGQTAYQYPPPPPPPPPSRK
UniProt O94992: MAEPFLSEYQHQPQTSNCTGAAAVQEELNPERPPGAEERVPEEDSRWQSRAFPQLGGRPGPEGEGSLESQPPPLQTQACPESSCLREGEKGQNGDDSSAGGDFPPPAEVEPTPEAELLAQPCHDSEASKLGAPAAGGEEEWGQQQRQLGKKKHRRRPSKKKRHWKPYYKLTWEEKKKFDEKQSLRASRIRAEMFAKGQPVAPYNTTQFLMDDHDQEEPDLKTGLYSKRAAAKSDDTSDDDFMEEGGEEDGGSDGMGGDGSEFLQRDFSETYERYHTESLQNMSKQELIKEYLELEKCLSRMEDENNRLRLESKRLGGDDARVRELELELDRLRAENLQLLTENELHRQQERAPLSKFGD
UniProt O60563: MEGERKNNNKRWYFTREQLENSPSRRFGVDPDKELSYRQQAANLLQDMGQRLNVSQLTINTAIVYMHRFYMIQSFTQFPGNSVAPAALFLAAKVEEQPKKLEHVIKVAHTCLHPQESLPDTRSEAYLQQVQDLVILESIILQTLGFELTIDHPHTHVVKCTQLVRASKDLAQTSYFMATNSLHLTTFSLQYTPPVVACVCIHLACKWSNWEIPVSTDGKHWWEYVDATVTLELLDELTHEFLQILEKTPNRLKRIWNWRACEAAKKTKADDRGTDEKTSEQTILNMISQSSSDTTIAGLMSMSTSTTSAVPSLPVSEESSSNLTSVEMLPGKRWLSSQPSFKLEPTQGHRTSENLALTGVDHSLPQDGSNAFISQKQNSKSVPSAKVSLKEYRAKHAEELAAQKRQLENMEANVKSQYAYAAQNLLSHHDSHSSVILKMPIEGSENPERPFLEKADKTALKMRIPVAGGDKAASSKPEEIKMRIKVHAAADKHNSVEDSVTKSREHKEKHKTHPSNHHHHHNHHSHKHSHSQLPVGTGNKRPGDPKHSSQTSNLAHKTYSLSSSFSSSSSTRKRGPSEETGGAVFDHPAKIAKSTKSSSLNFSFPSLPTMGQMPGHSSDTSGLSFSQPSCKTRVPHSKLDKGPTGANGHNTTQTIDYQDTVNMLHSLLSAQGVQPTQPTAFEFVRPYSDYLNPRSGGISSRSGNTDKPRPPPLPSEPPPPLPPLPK

Experiments:
[1] = biological target: Myc tagged DDX5 (wild type) (human) (UniProt P17844); experiment: co-IP; as a1, samples from Myc-DDX5 wild type treated with RNase enzyme; western blot for HEXIM1
[2] = biological target: Myc tagged DDX5-T176R + E178V + L179A (human) (UniProt P17844); experiment: co-IP; HeLa cells transfected with Myc-tagged constructs (with pLAI where stated), harvested after 48 h; nuclear extracts; overnight with 2 ug Myc or isotype control antibody in CO-IP buffer (20 mM HEPES pH 7.9, 150 mM NaCl, 0.5 mM DTT, 20% glycerol, 10 mM NaF), A/G Sepharose beads 3 h at 4 C; western …
[3] = biological target: Myc tagged DDX5 (wild type) (human) (UniProt P17844); experiment: as above
[4] = biological target: Myc tagged DDX5-E249Q (human) (UniProt P17844); experiment: as above
[5] = biological target: Myc tagged DDX17 (human) (UniProt Q92841); experiment: as above

HEXIM1 (hexamethylene bisacetamide (HMBA) induced protein 1) (from UniProt O94992 1-359)
binding [1]: no binding (condition: with RNase treatment)
binding [2]: no binding
binding [3]: binds
binding [4]: no binding

P-TEFb (Cyclin T1 and CDK9) (from UniProt O60563 1-726; P50750 1-372) (complex)
binding [3]: no binding

DDX5 (endogenous) (from UniProt P17844 1-614)
binding [5]: binds

HIV-1 Tat (expressed from the proviral clone pLAI) (from UniProt P04610 1-86)
binding [3]: binds

DDX17 (endogenous) (from UniProt Q92841 1-729)
binding [3]: binds
